Results reported in PubChem BioAssay AID1159614 (National Center for Advancing Translational Sciences (NCATS), 2016).
Hit rate of the full screen: of about 45,000 compounds, about 65 (0.1%) were called active. The call rests on the fitted dose curve; in most records, active means well fitted activation curve with a large enough effect; inconclusive means small, poorly fitted or top-dose-only effect; inactive means no such curve, though single readings can be large or run the other way. This is one part of the list.

target: Galactocerebrosidase (Homo sapiens) (UniProt P54803); test: A Novel Cell-Based Assay to Identify Small Molecules for B -Galactocerebrosidase; conditions: 145M-Twi-hGALC-G270D cells (Twitcher mouse brain line with human GALC G270D), HMU-beta-Gal fluorescence, 48 h; series mostly up to 57.5 µM; activation: at the top concentration; further: 0% is about no effect; nearly all actives have a fitted effect of over 65% in size
Chain of UniProt P54803 (P54803 whole entry, looked up): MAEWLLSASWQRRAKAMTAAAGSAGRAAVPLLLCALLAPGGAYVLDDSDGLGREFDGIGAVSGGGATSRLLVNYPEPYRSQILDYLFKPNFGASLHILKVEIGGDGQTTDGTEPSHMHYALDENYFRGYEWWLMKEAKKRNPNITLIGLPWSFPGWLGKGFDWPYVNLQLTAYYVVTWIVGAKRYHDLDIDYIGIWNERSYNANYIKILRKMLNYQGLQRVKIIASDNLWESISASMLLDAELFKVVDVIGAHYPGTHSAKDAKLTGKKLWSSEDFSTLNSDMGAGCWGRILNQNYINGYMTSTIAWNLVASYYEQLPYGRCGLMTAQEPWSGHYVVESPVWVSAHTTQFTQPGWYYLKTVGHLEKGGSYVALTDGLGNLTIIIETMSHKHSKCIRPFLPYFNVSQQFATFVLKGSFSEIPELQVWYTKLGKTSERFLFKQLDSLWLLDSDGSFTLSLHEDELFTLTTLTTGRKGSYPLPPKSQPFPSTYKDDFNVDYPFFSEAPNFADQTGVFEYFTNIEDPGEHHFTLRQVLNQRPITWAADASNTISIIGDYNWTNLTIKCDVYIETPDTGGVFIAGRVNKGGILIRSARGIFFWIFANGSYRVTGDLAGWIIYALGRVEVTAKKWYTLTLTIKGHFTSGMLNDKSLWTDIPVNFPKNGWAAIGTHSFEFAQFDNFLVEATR
Description: Lysosomal storage diseases (LSDs) are caused by genetic mutations in genes encoding proteins important for normal lysosomal function. Globoid cell leukodystrophy (GLD), mostly known as Krabbe disease, is a prototype of the neurological LSDs caused by deficiency of beta-galactocerebrosidase (GALC). In brain specimens of GLD patients, psychosine levels are substantially elevated. At elevated concentrations, psychosine becomes cytotoxic to neuronal cells, particularly to oligodendrocytes (OLG), neural cells responsible for myelin formation. Therefore, the biochemical disturbances in GLD are manifested by different degrees of brain demyelination resulting in a broad spectrum of neurological manifestations. Most of the FDA-approved therapies are based on enzyme replacement therapeutic (ERT) agents, which treat non-neurological symptoms of Gaucher disease, Fabry disease, few mucopolysaccharidoses and Pompe disease. Unfortunately, in GLD, a primarily neurological LSD, ERT agents, as large molecular weight molecules unable to cross the blood-brain barrier, which makes this an inefficacious therapeutic approach. In GLD, increasing the residual GALC activity just above the critical threshold (~10% of wild type enzymatic activity), the cytotoxic levels of psychosine will be reduced, avoiding the OLGs apoptosis and the subsequent demyelination process. This will translate in disease stabilization and amelioration of GLD patient symptoms.
A cell-based assay in 1,536-well plate format was developed to implement a quantitative high-throughput screening (qHTS) assay using GLD-disease relevant cells to identify small molecules that produce enhancements of the residual enzymatic activity levels of mutants GALC found and prevalent in GLD patients. Compounds that are active may therefore have some therapeutic application for GLD. After the treatment of live cells for a determined period, using a fluorescent GALC specific substrate, the mutant residual GALC activity is measured. This cell-based qTHS assay was used to screen part of the MLPCN library for small molecule able to increase the mutant GALC enzymatic activity. In this assay, increased fluorescent signal corresponds to enhanced levels of mutant GALC residual enzymatic activity. Activation is the desired outcome for this assay.
NIH Chemical Genomics Center [NCGC]
NIH Molecular Libraries Probe Centers Network [MLPCN]
Assay Submitter (PI): Gustavo Maegawa MD,PhD, University of Florida, Gainesville, FL
2)#Two cell lines were established for the assay: 145M-Twi-hGALC-G270D (brain-derived Twitcher cell line stably expressing human GALC-G270D) and 145M-Twi-hGALC-WT (same 145M-Twi stably expressing human GALC wild type). The Twitcher is the murine C57B/6 model for GLD with naturally occurring homozygous nonsense GALC mutation. The 145M-Twi cell line was established at Maegawa lab (Ribbens J et al 2014).
a.#Media: DMEM/F12 (1:1) with 10% fetal bovine-serum (FBS) with penicillin/streptomycin (PS-1X - 100 I.U./mL of penicillin+100 ug/mL of streptomycin).
b.#The 6-Hexadecanoylamino-4-methylumbelliferyl-b-D-galactoside (HMU-B-gal) substrate was prepared as per Wiederschain et al 1992. Using 20-mL borosilicate tubes, 2.20 mg of HMU-b-Gal was added in each tube to prepare substrate-film with a final air-nitrogen stream evaporation to remove all diluent solvents.
c.#The HMUb-Gal substrate buffer consists of 0.2 M Na2HPO4 (sodium phosphate dibasic)/ 0.1 M Citric Acid with the pH adjusted to 5.2 using HCl. Sodium Azide at 0.02% and Sodium Taurocholate (NaTC) at 1 mg/mL were added to this substrate buffer.
d.#The HMU-b-Gal stopping buffer consist of 0.5 M NaHCO3 (sodium bicarbonate) /0.5 M Na2CO3 (sodium carbonate). […] Triton X-100 at 0.25% was added.
4)#Preparation of HMU-b-Gal substrate tubes
Adding 18.6 mL of the HMUb-Gal substrate buffer to each 20-mL tube (2.20 mg of HMU-b-Gal) will reach a concentration of 0.2 mM. Vortex well the tube until the solution is fully homogenized (clear cloudy solution). […]

activation, inactive:
CCOC(=O)c1c(NC(=O)c2cc(=O)c3c(C)cc(C)cc3o2)sc(C)c1C -7.75%, Cc1cc(C(=O)Nc2ccc(Cl)cc2)c2c(C)nn(-c3ccccc3)c2n1 -7.52%, CCCS(=O)(=O)NCCc1sc2nc(-c3ccc(Cl)cc3)nn2c1C -10.2%, CCOC(=O)N1CCc2c(sc(NCc3ccc(N(C)C)cc3)c2C(=O)Nc2ccccc2OCC)C1 -13%, Brc1ccc(-c2csc(-c3nc(-c4ccc(Br)s4)cs3)n2)cc1 -12.1%, CCOc1ccc(N(CC(=O)NCc2ccc(C)cc2)S(=O)(=O)c2c(C)[nH]c(=O)[nH]c2=O)cc1 -14.5%, CCOc1ccc(NC(=O)CSc2oc(-c3ccco3)nc2S(=O)(=O)c2ccc(Cl)cc2)cc1 0.972%, O=C(Nc1ccccc1C(F)(F)F)N1Cc2ccccc2Oc2ncccc21 -12.5%, COc1cccc(C2C=C(c3ccc(C)cc3)Nc3c(C(=O)Nc4ccc(F)cc4)cnn32)c1OC (configuration not stated) -17.6%, CC(CCc1ccccc1)NC(=O)Cn1ncc2c3ccccc3n(Cc3cccc(Cl)c3)c2c1=O (configuration not stated) -12.3%, COc1ccc(CN(C(=O)c2ccc(OCC(C)C)cc2)C2CCS(=O)(=O)C2)cc1 (configuration not stated) -8.69%, CC(NC(=O)c1ccc(Cn2c(SCc3ccccc3)nc3cccnc32)cc1)c1ccccc1 (configuration not stated) -18.6%, CCc1ccc(NC(=O)c2sc3nc(-c4ccccc4)cn3c2C)cc1 -13.2%, CCN1CCN(C(c2cccc(OC)c2)c2c(O)cc(C)n(Cc3ccco3)c2=O)CC1 (configuration not stated) -23.1%, CCN(CC)CCNC(=O)Cn1cnc2sc(C)c(S(=O)(=O)N3CCN(c4ccccc4OC)CC3)c2c1=O -10.2%, COc1ccc(N2CCN(C(=O)Nc3ccc(Cl)cc3)CC2)cc1 -16.6%, CCc1cccc(-n2nnc(-c3nc(-c4ccc5c(c4)OCO5)no3)c2C)c1 -15.4%, Cc1cccc(C(=O)NCc2nnc(SCC(=O)Nc3ccccc3F)n2-c2ccccc2)c1 -17.4%, COc1ccc(NC(=O)CSc2nc(-c3ccccc3)c3ccccc3n2)cc1 -13.6%, CCOc1ccc(-c2n[nH]c3c2C(c2cccs2)N(c2ccc(Br)cc2)C3=O)cc1 (configuration not stated) -26.1%, CCOC(=O)c1cc(-c2ccc(OC)cc2)n(CCC(=O)NC2CCC(C)CC2)c1C (configuration not stated) -16.8%, COc1ccc(S(=O)(=O)N2CCN(C(=O)c3cc(-c4ccc(Br)cc4)n[nH]3)CC2)cc1OC -40.2%, CC(=O)N1c2ccc(S(=O)(=O)NCC3CCC(C(=O)Nc4cccc(F)c4)CC3)cc2CC1C (configuration not stated) 21.9%, CCOc1ccc(S(=O)(=O)NCCc2sc(-c3ccc(C)cc3)nc2C)cc1 -20%, COc1cccc(CNC(=O)Cn2ccc3cc(S(=O)(=O)N4CCCC4)ccc32)c1 -11%, CCOc1ccccc1N1CC(c2nc3ccccc3n2CCCOc2ccccc2OC)CC1=O (configuration not stated) -13.7%, CCc1ccccc1N1CC(c2nc3ccccc3n2Cc2cccc(C)c2)CC1=O (configuration not stated) 8.21%, O=C(Nc1sc2c(c1C(=O)NCc1ccccc1)CCCC2)c1cc(=O)c2cc(Cl)ccc2o1 -8.62%, N#Cc1ccccc1Cn1nnc2c(=O)[nH]c(C3CCCN(S(=O)(=O)c4ccc(F)cc4)C3)nc21 (configuration not stated) -8.2%, O=C(Nc1nc2nc(-c3ccccc3)cc(=O)n2[nH]1)c1ccc(F)cc1 -9.15%, O=C(Nc1cccnc1Cl)c1cc(-c2ccc(Cl)cc2)on1 -5.1%, O=C(NCc1ccccc1)C1CCC(CNS(=O)(=O)c2ccc(Br)s2)CC1 (configuration not stated) -1.16%, COc1cc(NC(=O)Cn2c(=O)n(C(C)C)c(=O)c3oc4ccccc4c32)cc(OC)c1 -13.8%, CC1CCc2nn(CC(=O)Nc3cccc(C(F)(F)F)c3)c(=O)cc2C1 (configuration not stated) -10.8%, CNC(=O)c1cc2n(n1)CCCN(Cc1ccc(F)cc1)C2=O -3.52%, O=C1C(c2ccc(F)cc2)N(CCc2ccccc2)C(=O)CN1C1CCCCC1 (configuration not stated) -0.677%, CC(C)c1ccc(C(=O)Nc2cccc3cccnc23)cc1 -8.58%, COc1ccc(CN(C(=O)Nc2ccc(C)c(F)c2)C2CCN(C(C)=O)CC2)cc1 -10.6%, Cc1ccccc1C(=O)Nc1nnc(SCc2cc(=O)c3c(C)ccc(C)c3[nH]2)s1 19.3%, CCc1ccc(NC(=O)Cn2nnc(C(=O)NCc3ccco3)c2N)cc1 -14.1%, COc1cccc(COC(=O)c2ccc(-c3nnn(Cc4ccccc4)n3)cc2)c1 -9.41%, CC1CCN(S(=O)(=O)c2cc(C(=O)NCc3ccc(F)cc3)n(C)c2)CC1 -4.57%, CCC1CN(C(=O)N2CCC(C(=O)NCCOC)CC2)c2ccccc2O1 (configuration not stated) -13.2%, Cc1ccc(NC(=O)CCS(=O)(=O)c2ccc3nc(C)sc3c2)cc1 -8.02%, CCOc1ccc(CCNS(=O)(=O)c2c(C)nc3sc(C)cn3c2=O)cc1OCC -9.8%, CC(=O)c1ccc(NC(=O)CCc2c(C)nn(-c3ccc4nncn4n3)c2C)cc1 3.89%, CSc1ccc(CCNC(=O)c2cc3n(n2)CCCN(Cc2ccc(C)cc2)C3=O)cc1 -26.4%, CCc1ccc(NC(=O)C2CCCN(S(=O)(=O)c3c(C)[nH]c(=O)[nH]c3=O)C2)cc1 (configuration not stated) 5.19%, CC(C)c1ccc(NS(=O)(=O)c2ccc3[nH]c(=O)ccc3c2)cc1 -10.7%, COC(=O)c1ccc(Cn2nc(-c3ccc(C)c(C)c3)ccc2=O)cc1 -4.76%, COc1ccc(Cl)cc1Nc1ncnc2c1nc1n2CCCC1 4.94%, COCCc1nn2c(=O)cc(COC(=O)COc3ccccc3C)nc2s1 13.4%, O=C(CCS(=O)(=O)c1cc2c3c(c1)CCN3C(=O)CC2)NCc1ccc(F)cc1 -0.983%, CC(C)c1ccc(NC(=O)C2CCCN(S(=O)(=O)c3cccc4nonc34)C2)cc1 (configuration not stated) -10.5%, O=C(Nc1noc2ccccc12)c1cccc(F)c1 -10.3%, CCOC(=O)c1c(S(=O)(=O)N2CCCC(C(=O)Nc3ccc(C)cc3C)C2)c(C)n(CC)c1C (configuration not stated) -17.9%, COC(=O)c1ccc(C2c3c(oc4cc(C)c(C)cc4c3=O)C(=O)N2c2ccccn2)cc1 (configuration not stated) -18.9%, O=c1c2ccccc2n2c(-c3ccc(F)c(F)c3)nnc2n1CCc1ccccc1 -19%, Cc1cc(C)c(NC(=O)CSc2nnc3[nH]c(=O)cc(C)n23)c(C)c1 -6.86%, CCC(=O)Nc1ccc2nc(SCC(=O)N3CCc4ccccc43)sc2c1 2.62%, CCOC(=O)c1ccccc1NC1(c2ccc(OC)cc2)C(=O)c2ccccc2C1=O -16.8%, Cc1ccc(NC(=O)c2sc3nc(-c4ccc(F)cc4)cn3c2C)c(C)c1 -12.4%, COc1ccc(CCC(=O)NC2CC(=O)N(c3ccc(C)c(C)c3)C2)cc1 (configuration not stated) -11.2%, CCCCNC(=O)c1ccc2c(=O)n(-c3ccccc3)c(=O)[nH]c2c1 -5.2%, Cc1ccc(CNC(=O)c2ccc(-c3nc(CN4CCc5ccccc54)c(C)o3)cc2)cc1 -30.2%, O=C(NCc1ccc(Cl)cc1)C(=O)NCC(c1ccco1)S(=O)(=O)c1cccs1 (configuration not stated) -5.3%, Cc1cc(C)c(NC(=O)Cn2c(=O)n(CCC(=O)NCc3ccc4c(c3)OCO4)c(=O)c3ccccc32)c(C)c1 7.93%, CCOc1ccc(S(=O)(=O)Nc2ccc3c(c2)c(C(C)=O)c(C)n3S(=O)(=O)c2ccc(OCC)cc2)cc1 -33.5%, CCOC(=O)C1CCN(C(=O)CSc2c3c(nc4ccc(Cl)cc24)CCCC3)CC1 -41.6%, CC(=O)Nc1ccc(C(=O)CSc2nnc3cc(C)c4ccccc4n23)cc1 -18%, COc1cccc(NC(CNS(=O)(=O)c2ccc(C)cc2)c2ccccc2)c1 (configuration not stated) -7.73%, CCN1C(=O)c2ccccc2Sc2ccc(NC(=O)c3ccc(C)c(F)c3)cc21 -9.48%, O=C(Cn1nnc2sc3c(c2c1=O)CCCC3)Nc1ccc(F)c(Cl)c1 -7.53%, CCc1c(C)nc2nncn2c1Nc1ccc(C)c(F)c1 -11.3%, COc1ccc(C2NC(=O)NC(C)=C2C(=O)Nc2cc(C)cc(C)c2)c(OC)c1 (configuration not stated) -12.6%, Cc1ccccc1CNC(=O)CCCn1nc(C)c2sc3ccccc3c2c1=O -0.363%, Cc1cc(-c2ccc(C)c(S(=O)(=O)NCc3ccc(Cl)cc3)c2)on1 -16.5%, CCCS(=O)(=O)NCCc1csc2nc(-c3ccc(OC)cc3)nn12 -8.21%, CN(Cc1ccccc1)c1ncnc2c1nc1n2CCCC1 -9.49%, COc1ccccc1N(CC(=O)NCCSCc1ccc(Cl)cc1)S(C)(=O)=O -1.34%, CCCCOc1cccc(C(=O)Nc2cccc3ccc(C)nc23)c1 -18.4%, COc1cc(OC)cc(C(=O)Nc2ccc3nc(N4CCC(C)CC4)cc(C)c3c2)c1 -9.58%, COc1cccc(C(=O)Nc2nnc(S(=O)(=O)N3CCOCC3)s2)c1 -16.2%, Cc1ccc(CS(=O)(=O)Cc2ccc(C(=O)NCCc3ccc(Cl)cc3)o2)cc1 5.06%, COc1ccc(C2CC(=O)Nc3c2c(=O)nc2c(C)cccn32)cc1 (configuration not stated) 1.31%, Cc1ccc2oc(=O)n(CCNC(=O)Nc3ccccc3Cl)c2c1 -2.64%, O=S(=O)(O)NC1CCCCC1 -14.2%, CCOC(=O)c1c(C)[nH]c(C)c1S(=O)(=O)N1CCC(C(=O)Nc2ccccn2)CC1 3.91%, Cc1ccc2c(CC(=O)Nc3cc(C(F)(F)F)ccc3Cl)coc2c1C -20.9%, Cc1cc(C)c2c(=O)cc(C(=O)Nc3ccccc3Cl)oc2c1 -14.4%, CCC12CN3CC(CC)(CN(C1)C3c1ccc(OCc3ccccc3)cc1)C2=O (configuration not stated) -12.9%, CCc1ccc(-c2nc3c(c(SCc4ccc(F)cc4)n2)Cc2c(CO)cnc(C)c2O3)cc1 1.74%, O=c1oc2ccc(Br)cc2cc1-c1nc(-c2ccccc2)no1 -5.55%, CCC(C)NC(=O)C1CCC(CNS(=O)(=O)c2cccc3nsnc23)CC1 (configuration not stated) -11.7%, CCS(=O)(=O)N1CC(=O)N(c2ccc(C)c(C)c2)C(C)(C(=O)NC2CCCCC2)C1 (configuration not stated) -4.07%, COc1ccc(C(=O)c2oc3ccccc3c2NC(=O)COc2c(C)cc(C)cc2C)cc1 -27.2%, Cc1cccc(NC(=O)CSc2nc3c(oc4ccccc43)c(=O)n2C(C)C)c1 -7.11%
